PubChem BioAssay AID1347165 (National Center for Advancing Translational Sciences (NCATS), 2019)
Out of some 220,000 compounds screened, about 5,700 (2.6%) were called active. The shares of active, inactive and inconclusive entries below differ from those in the screen. The call rests on the fitted dose curve; in most records, active means well fitted inhibition curve with a large enough effect; inconclusive means small, poorly fitted or top-dose-only effect; inactive means no such curve, though single readings can be large or run the other way. Potencies of inconclusive entries are doubtful fits and often do not repeat.

biological target: Lysine-specific demethylase 5B (Homo sapiens) (UniProt Q9UGL1); test: Primary screen for KDM5B Histone Demethylases FDH-coupled qHTS; conditions: FDH-coupled NADH fluorescence (FDH is formaldehyde dehydrogenase); activity change, negative = inhibition: at 57.7 µM (top of the series) unless noted; further: nearly all actives have a fitted effect of over 70% in size; on activity change, negative = inhibition: 0% is about no effect
Method in brief: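 qHTS format, multiple compound concentrations. Buffer 50 mM HEPES pH 7.5/0.01% Tween-20; 200 nM KDM5BΔAP final; 10 min compound preincubation; substrate-mix levels 12.5 µM peptide, 25 µM α-KG, 0.25 mM NAD⁺; 30 min RT; ΔRFU.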
Potency means the concentration at half of the fitted maximal effect; tags describe the fitted curve by direction and shape.

Sequence of UniProt Q9UGL1 (Q9UGL1 whole entry, looked up): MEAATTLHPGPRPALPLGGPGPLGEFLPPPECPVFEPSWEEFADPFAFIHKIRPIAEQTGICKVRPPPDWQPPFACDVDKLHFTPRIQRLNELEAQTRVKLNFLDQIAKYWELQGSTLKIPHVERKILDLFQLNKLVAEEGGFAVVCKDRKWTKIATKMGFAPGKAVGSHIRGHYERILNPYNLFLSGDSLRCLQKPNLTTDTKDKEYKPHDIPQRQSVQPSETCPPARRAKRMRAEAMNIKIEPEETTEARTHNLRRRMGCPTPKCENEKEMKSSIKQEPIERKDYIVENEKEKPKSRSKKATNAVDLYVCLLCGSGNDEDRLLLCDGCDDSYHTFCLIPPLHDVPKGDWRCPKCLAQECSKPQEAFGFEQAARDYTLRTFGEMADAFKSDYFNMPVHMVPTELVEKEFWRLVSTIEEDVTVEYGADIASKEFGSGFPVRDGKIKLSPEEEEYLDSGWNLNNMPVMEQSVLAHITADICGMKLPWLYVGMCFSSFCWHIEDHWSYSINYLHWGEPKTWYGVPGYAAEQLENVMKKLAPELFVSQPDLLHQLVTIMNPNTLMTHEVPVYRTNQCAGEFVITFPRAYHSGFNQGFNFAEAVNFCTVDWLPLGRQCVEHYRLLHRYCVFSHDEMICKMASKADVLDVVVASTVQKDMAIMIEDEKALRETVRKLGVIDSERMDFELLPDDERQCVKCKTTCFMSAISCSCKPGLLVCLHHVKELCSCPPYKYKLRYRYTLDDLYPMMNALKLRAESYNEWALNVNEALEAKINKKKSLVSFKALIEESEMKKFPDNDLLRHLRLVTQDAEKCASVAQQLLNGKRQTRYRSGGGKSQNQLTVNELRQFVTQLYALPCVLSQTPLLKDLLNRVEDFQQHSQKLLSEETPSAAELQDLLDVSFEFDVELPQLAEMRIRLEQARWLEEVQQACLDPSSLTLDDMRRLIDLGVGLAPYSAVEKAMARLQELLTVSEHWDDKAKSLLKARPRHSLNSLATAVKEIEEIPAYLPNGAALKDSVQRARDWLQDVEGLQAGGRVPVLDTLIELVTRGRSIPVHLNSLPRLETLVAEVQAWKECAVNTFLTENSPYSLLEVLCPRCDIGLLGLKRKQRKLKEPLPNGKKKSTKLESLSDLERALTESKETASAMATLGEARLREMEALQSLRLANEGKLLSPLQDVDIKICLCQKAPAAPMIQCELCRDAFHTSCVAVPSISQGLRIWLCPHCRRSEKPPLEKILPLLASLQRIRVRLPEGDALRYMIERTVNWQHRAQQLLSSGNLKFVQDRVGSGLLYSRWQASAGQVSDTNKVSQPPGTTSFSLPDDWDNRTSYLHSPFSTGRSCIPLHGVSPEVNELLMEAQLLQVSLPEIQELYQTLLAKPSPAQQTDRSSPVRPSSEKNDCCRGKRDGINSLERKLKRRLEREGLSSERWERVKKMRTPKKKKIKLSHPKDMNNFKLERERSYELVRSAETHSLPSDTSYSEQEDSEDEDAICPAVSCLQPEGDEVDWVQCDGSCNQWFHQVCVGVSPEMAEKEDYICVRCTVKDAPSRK

| Compound | activity change, negative = inhibition | Potency |
| --- | --- | --- |
| COCCOc1nc2c(c(=O)n(C)c(=O)n2C)n1Cc1ccc(C)cc1 | inactive: 16.6% | – |
| COc1cc(NC(=O)c2cc3nc(-c4ccc(C)cc4)cc(C(F)(F)F)n3n2)cc(OC)c1OC | inconclusive: -32.4% [inhibitor] | – |
| CC(C)/C(=N/O)c1ccc(OCCOc2ccc(/C(=N\O)C(C)C)cc2)cc1 | inactive: -4.9% | – |
| COCc1nc(C2CCCN(C(=O)Nc3cc(C)cc(C)c3)C2)no1 (stereo not given) | – | inconclusive: 39.8 µM [inhibitor, partial curve, poor fit] |
| OCC1CN(c2ncccn2)CC12CCN(Cc1ccsc1)CC2 (stereo not given) | – | active: 31.6 µM |
| CCc1ccc(Nc2ncnc3sc4c(c23)CCCC4)cc1 | – | inconclusive: 35.5 µM [inhibitor, partial curve, poor fit] |
| O=C(c1ccn[nH]1)N1CCC(c2noc(COc3ccc(F)cc3)n2)CC1 | inactive: -6.68% | – |
| COc1cc(NC(=O)Cn2c(=O)n(Cc3ccccc3Cl)c(=O)c3cc(OC)c(OC)cc32)cc(OC)c1 | inconclusive: -30.3% [inhibitor] | – |
| Cc1nnc(N2CCC(C(=O)N3CCCCC3)CC2)c2nn(-c3ccccc3)c(C)c12 | – | inconclusive: 31.6 µM [inhibitor, partial curve, poor fit] |
| OC(c1cccc(C(F)(F)F)c1)c1nc(Nc2cccc(Cl)c2)n[nH]1 (stereo not given) | inactive: -3.32% [at 86.2 µM] | – |
| Cc1ccc(C)c(Nc2ncnc3c2cnn3-c2ccc(F)cc2)c1 | – | inconclusive: 39.8 µM [inhibitor, single point] |
| COc1ccc(/C=C/c2nc(C#N)c(N3CCCCCC3)o2)cc1OC | – | inconclusive: 31.6 µM [inhibitor, partial curve, poor fit] |
| CCOc1ccc(-n2cc(-c3ccccc3)c3c(NCc4ccc(F)cc4)ncnc32)cc1 | – | inconclusive: 35.5 µM [inhibitor, partial curve, poor fit] |
| CC(C)CCNC(=O)C1(CCO)CCN(c2ncccn2)C1 (stereo not given) | – | active: 25.1 µM |
| Brc1ccc(-c2ccnc3nc(-c4cccs4)nn23)cc1 | – | active: 7.94 µM |
| COc1ccc(-c2cc(C(F)(F)F)nc(SCCC(=O)Nc3ccc(O)cc3)n2)cc1 | – | inconclusive: 2.82 µM [inhibitor, full curve, poor fit] |
| CC(=O)N[C@@H]1C[C@H](Cn2cc(C3CC3)nn2)[C@@H](O)[C@H]1O | – | inconclusive: 39.8 µM [inhibitor, partial curve, poor fit] |
| CC(=O)N1Cc2ccccc2CC2(CCCN(Cc3cccnc3)C2)C1 (stereo not given) | inactive: 22.1% [at 149 µM] | – |
| Cc1cccc(CNc2ccc3nnc(C)n3n2)c1 | – | inconclusive: 31.6 µM [inhibitor, single point] |
| CSc1ccc2cc(CN3CC[C@@H](O)C3)c(-c3ccc(Cl)cc3)nc2c1 | – | inconclusive: 28.2 µM [inhibitor, partial curve, poor fit] |
| O=C(/C=C/c1ccc(F)cc1)N1CCc2ccccc2C1 | – | inconclusive: 39.8 µM [inhibitor, partial curve, poor fit] |
| COCCN1CC(CNc2nc(CCN)nc3sc(C)c(C)c23)CC1=O (stereo not given) | – | inconclusive: 17.8 µM [inhibitor, partial curve, poor fit] |
| Cc1nn2c(c1-c1ccccc1-c1ccccc1)N(Cc1cccc(O)c1)CCC2 | – | active: 28.2 µM |
| Cc1ccc(C)c(NC(=O)c2cc3n(n2)CC(c2ccc(Cl)cc2)OC3)c1 (stereo not given) | – | active: 28.2 µM |

| Compound | activity change, negative = inhibition | Potency |
| --- | --- | --- |
| Cc1ccc2cc(/C=N/Nc3ccc(C(=O)O)cc3)c(Cl)nc2c1 | – | inconclusive: 31.6 µM [inhibitor, partial curve, poor fit] |
| Cn1cc(-c2cc3n(n2)CCCN3C(=O)CCC(=O)NC2CCCC2)c2ccccc21 | – | inconclusive: 20 µM [inhibitor, single point] |
| Cc1c(CC(=O)Nc2nc3ccccc3[nH]2)c(=O)oc2cc(O)ccc12 | inactive: -5340% | – |
| O=C1CCCC2=C1C(c1cccc(F)c1)C1=C(CCCC1=O)O2 | inactive: 15.9% | – |
| COc1ccccc1CNC(=O)c1ccc(CSc2nc3ccncc3n2Cc2ccccc2C)cc1 | – | inconclusive: 35.5 µM [inhibitor, single point] |
| COC1CCCN(c2cc(-c3cccnc3)nc3c(C)noc23)C1 (stereo not given) | inactive: 12.1% [at 86.2 µM] | – |
| COc1ccc(CNc2nc(-c3ccc(Cl)cc3)nn2C(=O)c2ccccc2)cc1 | – | inconclusive: 15.8 µM [inhibitor, partial curve, poor fit] |
| CC(NC(=O)c1nn(C(C)C)c(=O)c2ccccc12)c1cccs1 (stereo not given) | inactive: 25.7% | – |
| O=C(N[C@H]1CCOC[C@H]1C1CCOCC1)c1ccccc1-c1ncc[nH]1 | – | inconclusive: 39.8 µM [inhibitor, single point] |
| CCOC(=O)C(C)NC(=O)c1cc(OC)c(OC)c(OC)c1 (stereo not given) | inactive: 19.2% | – |
| COc1ccc(-c2cc(-c3cccnc3)c3cncn3c2)cc1OC | – | inconclusive: 39.8 µM [inhibitor, partial curve, poor fit] |
| N#Cc1nc(-c2ccc(OCc3ccccc3)cc2)oc1NCCN1CCOCC1 | – | inconclusive: 25.1 µM [inhibitor, partial curve, poor fit] |
| c1ccc2nc(-n3nc(C4CCOC4)nc3C3CC3)cnc2c1 (stereo not given) | inactive: 4.45% | – |
| Cc1nncn1C1CCN(S(=O)(=O)c2ccc(F)c(F)c2)CC1 | inactive: 11.5% | – |
| C[C@@H]1C(=O)O[C@H]2[C@H]1CC[C@@]1(C)Cc3sc(NC(=O)CS(=O)(=O)c4ccccc4)nc3[C@@H](C)[C@H]21 | inactive: -3.56% | – |
| O=C(NC1CCN(c2cc(-c3ccc(Cl)cc3)[nH]n2)C1)c1ccc(Br)cc1 (stereo not given) | – | inconclusive: 7.08 µM [inhibitor, partial curve] |
| CCCCN(CCCC)C1=C(C(=O)c2ccccc2)N(CC)S(=O)(=O)c2ccccc21 | – | inconclusive: 25.1 µM [inhibitor, partial curve, poor fit] |
| COC(=O)c1ccc2c(c1)nc1n2[C@@H](CNCc2ccc(S(C)(=O)=O)cc2)COC1 | – | inconclusive: 35.5 µM [inhibitor, partial curve] |
| CN1CCN(S(=O)(=O)c2cc3cc(Cl)ccc3oc2=O)CC1 | inactive: -19.3% | – |
| COCCCN1CC2(CCC1=O)CCN(Cc1nonc1C)CC2 | – | inconclusive: 15.8 µM [inhibitor, partial curve] |
| Cc1cc(Cl)ccc1S(=O)(=O)N1CC(c2noc(-c3cccnc3)n2)C1 | inactive: -6.49% | – |
| Cc1cc(C)cc(NC(=O)C2CCN(S(=O)(=O)c3c(C)noc3/C=C/c3ccco3)CC2)c1 | – | inconclusive: 15.8 µM [inhibitor, partial curve, poor fit] |
| Cc1ccn2c(Nc3c(C)cccc3C)c(-c3ccc(Cl)s3)nc2c1 | – | inconclusive: 28.2 µM [inhibitor, partial curve, poor fit] |
| CCOc1ccc(C2Cn3nnc(-c4nc(-c5ccsc5)no4)c3CO2)cc1 (stereo not given) | – | active: 25.1 µM |

| Compound | activity change, negative = inhibition | Potency |
| --- | --- | --- |
| O=C1OC[C@@H]2CCN(Cc3ccccn3)Cc3ccccc3N12 | – | inconclusive: 35.5 µM [inhibitor, partial curve] |
| CCCN1C(CC(C)C)=NS(=O)(=O)c2cc(NC(=O)c3cccs3)ccc21 | inactive: -12.2% | – |
| Cc1c(Cl)cccc1-c1ccc(C=O)o1 | – | inconclusive: 20 µM [inhibitor, partial curve, poor fit] |
| Cc1cnc(CCNC(=O)c2ccc(C#N)cc2)n1C1CCCC1 | inactive: 11.3% | – |
| CN(C)c1cccc(-c2nccc3c(=O)cc(N4CCOCC4)oc23)c1 | – | active: 35.5 µM |
| CC(C)CCC1(C)NC(=O)N(c2ccc(Br)cc2)N1 (stereo not given) | inactive: 3.72% | – |
| COCCN1C(=O)CC[C@@]2(C(=O)NCc3ccncc3)CCCC[C@H]12 | – | inconclusive: 28.2 µM [inhibitor, single point] |
| CC(C)C[C@@H]1N[C@H](C(=O)NC2CC2)Cc2cn(Cc3nccn3C)c3cccc1c23 | – | inconclusive: 25.1 µM [inhibitor, partial curve, poor fit] |
| COc1cccc(NC(=O)c2sc3nc(C)c(C(=O)Nc4ccc(C)cc4C)c(-c4cccs4)c3c2N)c1 | inactive: 9.97% | – |
| O=C(COc1cccc(Cl)c1)NC1CCCN(c2ncccn2)C1 (stereo not given) | – | inconclusive: 39.8 µM [inhibitor, single point] |
| CNC(=O)[C@@H]1CN(C(=O)c2cc3ccc(OC)cc3[nH]2)C[C@H]1c1n[nH]c(C)n1 | – | inconclusive: 12.6 µM [inhibitor, partial curve] |
| C/C(=N\NC(=O)C1CC1c1ccccc1)c1cccc(C)c1 (stereo not given) | inactive: 18.9% | – |
| O=C1CC(=O)CC(c2ccc(F)cc2)C1 | inactive: 15.8% | – |
| O=C(N[C@@H]1C[C@H](Cn2cc(C3CC3)nn2)[C@@H](O)[C@H]1O)c1ccccc1 | – | inconclusive: 14.1 µM [inhibitor, partial curve] |
| CCn1c2c(c(=O)n3ncc(C(=O)Nc4ccc(F)cc4Cl)c13)CN(Cc1ccc(OC)cc1)CC2 | – | inconclusive: 28.2 µM [inhibitor, partial curve, poor fit] |
| Cc1ccccc1-c1cc(C(=O)NCCN2CCNC2=O)c2c(c1)N(C)CCO2 | – | active: 39.8 µM |
| Cc1cc(C(=O)N2CC(Oc3ccc(-c4nc(-c5ccccc5)no4)cc3)C2)nn1C | inactive: -25.3% | – |
| COc1ccc(CC(=O)Nc2nnc3n2CCS3)cc1 | – | inconclusive: 28.2 µM [inhibitor, partial curve, poor fit] |
| Cc1ccc(-c2nnc3ccc(NC(C)C)nn23)nc1 | – | inconclusive: 31.6 µM [inhibitor, partial curve, poor fit] |
| O=C(c1ccsc1)N1CCCn2cc(-c3ccccc3F)nc21 | inactive: 8.82% | – |
| COc1ccc(CN2Cc3[nH]cnc3C[C@H]2C(=O)N2CCC(Cc3ccccc3)CC2)cc1 | inactive: -28.9% | – |
| CNc1cc(C(=O)NCc2cccnc2N(C)Cc2ccccc2)ccn1 | – | inconclusive: 25.1 µM [inhibitor, partial curve, poor fit] |
